Experimental data reported in the supplement of paper PMC3724861.
This is one part of the list.

tested on: T1, Caupolican (Caup) homeodomain DNA-binding domain; assay: PBM E-score (8-mer, recovered from the published 9-mer minima) (E-score (dimensionless, -0.5 to 0.5)); Drosophila protein; higher = stronger relative binding preference, active = 0.31 or more
T1 sequence: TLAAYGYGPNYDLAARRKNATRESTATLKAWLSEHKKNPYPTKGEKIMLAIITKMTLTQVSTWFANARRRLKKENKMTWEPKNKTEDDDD
Description: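 Protein binding microarray (PBM): in vitro transcribed/translated Caupolican (Caup) homeodomain DNA-binding domain (residues 214-303) applied at 100 nM to a universal 8-mer PBM array (Agilent AMADID 015681). The 8-mer enrichment score (E-score, range -0.5 to 0.5) was computed, and each 9-mer score is the minimum E-score of its two constituent 8-mers. The E-score is the same for a 9-mer and its reverse complement; 0.31 is the stated binding threshold.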

Row | Sequence | PBM E-score
1 | AACTGAAC | inactive: 0.0211
2 | CGGGTTCC | inactive: -0.19
3 | AGGAAGGA | inactive: -0.0149
4 | GCTAGGCA | inactive: -0.166
5 | ACACCTTC | inactive: 0.079
6 | AGGACGGC | inactive: -0.14
7 | AGCCGCGG | inactive: -0.249
8 | ATTCGACA | inactive: 0.24
9 | GGGGGAGA | inactive: -0.262
10 | ACATGCCA | active: 0.336
11 | CCGCTCTC | inactive: -0.261
12 | CTCGTCAG | inactive: 0.037
13 | ATAATGAA | inactive: 0.136
14 | CAGGCACC | inactive: -0.0964
15 | AAGAGTCC | inactive: -0.0907
16 | ATTTAGGA | inactive: 0.069
17 | GCCTCTGA | inactive: -0.2
18 | AGGACTAC | inactive: 0.0221
19 | AAATTAGG | inactive: 0.0324
20 | ATCCCTGC | inactive: -0.137
21 | AATAATTC | inactive: 0.204
22 | AGGATTTG | inactive: 0.126
23 | TGACGTAA | inactive: 0.0998
24 | CGCCTTGC | inactive: -0.0806
25 | CGCTGTAG | inactive: 0.0698

Row | Sequence | PBM E-score
26 | AACTCAGG | inactive: -0.129
27 | ATAGCAGG | ≥ 0.0448
28 | CGTCTTAG | inactive: -0.133
29 | GGGCCGTA | inactive: -0.122
30 | AGGAGATA | inactive: 0.00547
31 | GACCAGAC | inactive: -0.029
32 | CGGTCCCC | inactive: -0.298
33 | ACGCGGAG | inactive: -0.171
34 | ATTCGTCG | inactive: 0.0411
35 | ATTACAAT | inactive: 0.298
36 | CGCATGAG | inactive: -0.204
37 | AACGTATA | inactive: 0.0814
38 | AAACTACG | inactive: 0.0609
39 | AACTAAAA | inactive: 0.0647
40 | CACTCCCA | inactive: 0.0198
41 | CATAGATC | inactive: 0.116
42 | CGGAAAAC | inactive: 0.0304
43 | GCTGATAA | inactive: 0.0283
44 | GGACTACA | inactive: 0.161
45 | CCCCTCGC | inactive: -0.261
46 | AATGCAGA | inactive: 0.0234
47 | CGTTCGAA | inactive: 0.0359
48 | CACGATGC | inactive: -0.0178
49 | AGTTTAGG | inactive: -0.00797
50 | AACCATCT | inactive: -0.00295

Row | Sequence | PBM E-score
51 | TAAAGCGA | inactive: -0.0517
52 | ATGGGTAC | inactive: 0.138
53 | ACAAAAGA | inactive: 0.131
54 | CTTCGTCC | inactive: -0.193
55 | GAGCGGTA | inactive: -0.0235
56 | CGTCCGTC | inactive: -0.158
57 | AGTCCGCA | inactive: -0.112
58 | AACGTCCG | inactive: -0.0455
59 | GATCACTA | inactive: 0.00016
60 | CGATAATA | inactive: 0.137
61 | TAAATTTA | inactive: 0.0912
62 | TCTTGTCA | active: 0.329
63 | GTGATGCA | inactive: 0.155
64 | GCTACCTA | inactive: 0.0125
65 | ACTACGAA | inactive: 0.108
66 | GTTCCCTA | inactive: 0.057
67 | CCTTCGCA | inactive: -0.12
68 | TACGCGTA | inactive: 0.0722
69 | GTGGAGAA | inactive: -0.136
70 | CCTGGAAA | inactive: -0.106
71 | CGGGTTGA | inactive: -0.142
72 | AAACGGCC | inactive: -0.153
73 | CACCAGCA | inactive: -0.0599
74 | CTCAGCAC | inactive: 0.0305
75 | GATCACCA | inactive: 0.00065

Row | Sequence | PBM E-score
76 | ACGCAACA | inactive: 0.215
77 | ATCAAGGC | inactive: -0.0234
78 | CCGGGGTC | inactive: -0.192
79 | ACATCCGT | inactive: 0.187
80 | ATGGCTGG | inactive: -0.0905
81 | CCGTAGGA | inactive: -0.155
82 | CAGCGCTG | inactive: 0.0134
83 | AAACAGGA | ≥ 0.196
84 | GCCAACGC | inactive: -0.166
85 | GATCAATC | inactive: -0.0083
86 | CTAACCAG | inactive: 0.121
87 | CAAATATG | inactive: 0.0918
88 | AAGACGAA | inactive: 0.0568
89 | TAATGCAA | inactive: 0.0818
90 | ATCTCTCC | inactive: -0.0495
91 | CTACTAGA | inactive: 0.0626
92 | CCCTTTAG | inactive: -0.095
93 | CCGACAGC | inactive: -0.0901
94 | AAATAAAC | inactive: 0.193
95 | ATACGAAG | inactive: 0.0288
96 | CGGGTTGC | inactive: -0.109
97 | GACCGCCC | inactive: -0.287
98 | CTACCGTA | inactive: 0.0707
99 | ACCGTTTC | inactive: -0.068
100 | AAGTCTGT | inactive: 0.139

Row | Sequence | PBM E-score
101 | CGTAAACG | inactive: -0.0383
102 | CTTGGGAC | inactive: -0.147
103 | ATAGCACA | inactive: 0.0848
104 | ACGGTTAC | inactive: 0.0585
105 | AGGTGTAT | inactive: 0.243
106 | ATGATATA | inactive: 0.174
107 | CTACTCCC | inactive: -0.056
108 | ATTTAGTG | inactive: 0.094
109 | CCTTAACA | inactive: 0.147
110 | AGGGGATA | inactive: 0.00853
111 | CCGCAATC | inactive: -0.119
112 | AGAGTCTC | inactive: -0.13
113 | CGATGAAG | ≥ 0.0686
114 | ACCGATCT | inactive: -0.0517
115 | ATCTTCCG | inactive: -0.0309
116 | AAGCATCG | inactive: -0.00688
117 | AGACGAAT | inactive: 0.0391
118 | ACTGTTGG | inactive: -0.00277
119 | GCCCCCGA | inactive: -0.297
120 | ATTTCTTA | inactive: 0.1
121 | TAATAGCA | inactive: 0.0739
122 | ATACAAAT | inactive: 0.272
123 | CTGCAGCC | inactive: -0.196
124 | CGACCACG | inactive: -0.0332
125 | GAGAATGA | inactive: 0.0682

Row | Sequence | PBM E-score
126 | ACGGCTTC | inactive: -0.124
127 | GGCCTCCA | inactive: -0.206
128 | GTTGATAA | inactive: 0.167
129 | AAGGTGCC | inactive: -0.0732
130 | ATCGCCGC | inactive: -0.14
131 | GTCCGCGA | inactive: -0.104
132 | AGGTTTCG | inactive: -0.0441
133 | ATCAGGAC | inactive: 0.0309
134 | CTGACAAC | inactive: 0.281
135 | AGTATGGC | inactive: -0.0798
136 | GGAGCACC | inactive: -0.132
137 | ACTTGCCG | inactive: 0.0385
138 | ATCGAGTG | inactive: 0.0358
139 | AAGCTGAA | inactive: -0.026
140 | GTGTGACA | inactive: 0.29
141 | CGGATCGC | inactive: -0.135
142 | GGACGGCA | inactive: -0.103
143 | ATAGTAGC | inactive: 0.105
144 | ATTTCTCC | inactive: -0.0592
145 | AACTTTCT | inactive: 0.0685
146 | CGTGGCCA | inactive: -0.145
147 | GGAAGGCA | inactive: -0.216
148 | CCATTTTA | inactive: 0.0318
149 | AATGCGCC | inactive: -0.0685
150 | ACATCAGA | inactive: 0.19

Row | Sequence | PBM E-score
151 | AGTGATTC | inactive: 0.022
152 | ACGGTAAT | inactive: 0.0153
153 | ATCCATAA | inactive: 0.00943
154 | GATGCATC | inactive: 0.142
155 | AGCATTCA | inactive: -0.00786
156 | AAAGGCCC | inactive: -0.159
157 | CAAGGTGC | inactive: -0.0393
158 | ACTAATTC | inactive: 0.23
159 | GACTAATC | inactive: 0.0756
160 | GTCCCAAC | inactive: 0.0237
161 | GTAGAGTA | inactive: 0.152
162 | GGTCACAA | inactive: -0.033
163 | ATCTTGGG | inactive: 0.0158
164 | CCCCTGGC | inactive: -0.288
165 | CGAGATGA | inactive: -0.0624
166 | CAGTGAAG | inactive: -0.0944
167 | AACCTGGC | inactive: -0.115
168 | GAGAGGGC | inactive: -0.268
169 | ACCTCTGA | inactive: -0.12
170 | AGTCTAAC | inactive: -0.0138
171 | AAACGCCG | inactive: -0.103
172 | AACCATGT | active: 0.347
173 | GCAACACA | inactive: 0.144
174 | ACCGAATG | inactive: 0.0492
175 | ATTCACCG | inactive: -0.0488

Row | Sequence | PBM E-score
176 | GTATCGAC | inactive: 0.0647
177 | CATTTAAC | inactive: 0.148
178 | CCCAAGGA | inactive: -0.154
179 | CTCGCCAC | inactive: -0.114
180 | ATCACCAT | ≥ 0.111
181 | AACAATAA | inactive: 0.195
182 | CCGTCAAG | inactive: -0.157
183 | CAACGGGG | inactive: -0.0741
184 | AATCTGTA | inactive: 0.21
185 | ATCACATC | inactive: 0.172
186 | AGCATAAG | inactive: -0.0406
187 | ACTTGATC | inactive: 0.0729
188 | GGACGTTA | inactive: -0.0181
189 | GTCCTACA | inactive: 0.146
190 | GCGTTCCC | inactive: -0.201
191 | AGATCTGC | inactive: 0.0742
192 | AGACTGCT | inactive: -0.0272
193 | AGTAATCG | inactive: 0.0504
194 | GTTGGTCA | inactive: 0.0524
195 | AACTAGCA | inactive: 0.0338
196 | ACATCCTG | inactive: 0.299
197 | AAACATCT | inactive: 0.215
198 | GGTATCCA | inactive: -0.0143
199 | CGACCGGC | inactive: -0.141
200 | CGGCAAAG | inactive: -0.0935

Row | Sequence | PBM E-score
201 | GGGTACAA | inactive: 0.242
202 | ACGTTTCA | inactive: 0.0345
203 | AGCATTGC | inactive: -0.0674
204 | GCGAACTA | inactive: -0.0109
205 | ACCATCAC | ≥ 0.0931
206 | AACTCTGT | inactive: 0.0656
207 | CGCCTACC | inactive: -0.139
208 | GACTACCC | inactive: -0.0672
209 | AATAGGCG | inactive: -0.0729
210 | AAAATCCA | inactive: 0.107
211 | AACGGAGG | inactive: -0.168
212 | AGACGTGC | inactive: -0.0698
213 | AGCCTGTA | inactive: 0.14
214 | GCGTAAGA | inactive: -0.0412
215 | TTAACGAA | inactive: 0.0384
216 | AGGCACGC | inactive: -0.243
217 | GAACTTAA | inactive: 0.00753
218 | ATCATTGA | inactive: 0.153
219 | CTTCCGCC | inactive: -0.236
220 | GTATGACA | active: 0.312
221 | ATGAGAGC | inactive: -0.0905
222 | GTAACATA | active: 0.345
223 | CCACTATC | inactive: -0.0271
